The supplement of paper PMC9446081
Screen size: about 39,000 compounds; about 220 (0.56%) showed activity. The list shows a part of the results.

test system: Escherichia coli K-12 BW25113; experiment: relative growth (OD600 normalised to plate interquartile mean) (fraction); higher = less growth inhibition, active = 0.2 or less; conditions: 50 µM; LB; incubation time: overnight (16-24 h)
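Note: static incubation at 37 °C against the wild-type strain, values averaged over two biological replicates.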

Structure (SMILES) | relative growth
C[C@@H]1CN([C@H](C)CO)C(=O)Cc2cc(NC(=O)Cn3cnnn3)ccc2O[C@@H]1CN(C)S(=O)(=O)c1cccs1 | inactive: 1
C[C@@H]1CCCCO[C@@H](CN(C)S(=O)(=O)c2cccs2)[C@H](C)CN([C@H](C)CO)C(=O)c2cc(NC(=O)CCC(F)(F)F)ccc2O1 | inactive: 0.977
C[C@H]1CN([C@@H](C)CO)C(=O)Cc2cc(NC(=O)Nc3cccc4ccccc34)ccc2O[C@@H]1CN(C)C(=O)Nc1ccc2c(c1)OCO2 | inactive: 0.995
Cl.O=C(O)c1cn(-c2ccc(F)cc2)c2cc(N3CCNCC3)c(F)cc2c1=O | active: 0.0456
Cc1cc(=O)n2ncnc2[nH]1 | inactive: 0.999
CSCC[C@H](N)C(=O)O | inactive: 1.01
C[C@@H]1CN([C@@H](C)CO)S(=O)(=O)c2ccc(C#CC3(O)CCCC3)cc2O[C@@H]1CN(C)C(=O)c1ccccc1 | inactive: 1
C[C@@H]1CN([C@@H](C)CO)S(=O)(=O)c2ccc(C#CC3CCCCC3)cc2O[C@H]1CN(C)C(=O)Cc1ccncc1 | inactive: 0.98
Cc1noc(C)c1S(=O)(=O)Nc1ccc2c(c1)CC(=O)N([C@H](C)CO)C[C@H](C)[C@@H](CN(C)Cc1ccc(C(=O)O)cc1)O2 | inactive: 0.98
COc1ccc(S(=O)(=O)Nc2cccc3c2O[C@H](CN(C)S(=O)(=O)c2ccc(F)cc2)[C@H](C)CN([C@@H](C)CO)C3=O)cc1 | inactive: 1.02
O=C(NC1CC1)[C@@H]1c2ccccc2C(=O)N(Cc2cc(C(F)(F)F)cc(C(F)(F)F)c2)[C@H]1c1ccc(CO)cc1 | inactive: 0.933
COc1ccc(NC(=O)N(C)C[C@@H]2Oc3c(NC(=O)c4ccc(-c5nccs5)cc4)cccc3C(=O)N([C@@H](C)CO)C[C@@H]2C)cc1 | inactive: 1.01
Cc1noc(C)c1NC(=O)Nc1cccc2c1O[C@@H](CN(C)S(=O)(=O)c1cn(C)cn1)[C@H](C)CN([C@@H](C)CO)C2=O | inactive: 1
COc1ccc(S(=O)(=O)N(C)C[C@@H]2Oc3cc(-c4ccccc4OC)ccc3S(=O)(=O)N([C@@H](C)CO)C[C@@H]2C)cc1 | inactive: 1.05
C[C@H](CO)N1C[C@H](C)[C@H](CN(C)Cc2ccncc2)Oc2c(NC(=O)c3cnccn3)cccc2C1=O | inactive: 0.978
C[C@H]1CN([C@@H](C)CO)C(=O)Cc2cc(NC(=O)CCCCCC(=O)Nc3ccccc3N)ccc2O[C@H]1CN(C)C(=O)Nc1ccc(C(F)(F)F)cc1 | inactive: 0.958
CCOCC(O)COc1ccc(NC(=O)CC[S+](C)C)cc1.Cc1ccc(S(=O)(=O)[O-])cc1 (configuration not stated) | inactive: 1.09
C[C@@H]1CN([C@@H](C)CO)C(=O)c2cc(NC(=O)Nc3ccc4c(c3)OCO4)ccc2O[C@@H](C)CCCCO[C@H]1CN(C)C(=O)Cc1ccccc1 | inactive: 1.03
CN(C)CC(=O)N[C@@H]1C=C[C@H](CC(=O)NCCN2CCCCC2)O[C@H]1CO | inactive: 0.989

Structure (SMILES) | relative growth
CCOC(=O)CCCCCC(=O)Nc1ccc2c(c1)C(=O)N([C@@H](C)CO)C[C@H](C)[C@H](CN(C)C(=O)Nc1ccc(C(F)(F)F)cc1)OCCCC[C@H](C)O2 | inactive: 1.05
CN1CCCN(c2ccccc2CN)CC1 | inactive: 1
CC(C)NC(=O)N(C)C[C@@H]1Oc2cc(C#Cc3ccccn3)ccc2S(=O)(=O)N([C@H](C)CO)C[C@H]1C | inactive: 0.96
COc1cc2c(cc1OC)CN(C(=O)[C@H]1[C@@H]3C(=O)O[C@@H](c4ccccc4)[C@@H](c4ccccc4)N3[C@@H](c3ccc(OCCO)cc3)[C@]13C(=O)Nc1ccc(C#CC4(O)CCCCCC4)cc13)CC2 | inactive: 1.07
Cc1noc(C)c1NC(=O)Nc1ccc2c(c1)CC(=O)N([C@@H](C)CO)C[C@H](C)[C@H](CN(C)C(=O)NC(C)C)O2 | inactive: 0.935
C[C@H](CO)N1C[C@H](C)[C@H](CN(C)S(=O)(=O)c2ccc(Cl)cc2)Oc2c(NC(=O)C3CCOCC3)cccc2C1=O | inactive: 1.01
CC1(C)CC(NC(=O)c2ccc(Cl)c(S(=O)(=O)N(Cc3ccccc3)c3ccccc3)c2)CC(C)(C)N1 | inactive: 0.991
COc1cc(NC(=O)CCN2CCC(OC(=O)Nc3ccccc3-c3ccccc3)CC2)c(Cl)cc1CNC[C@H](O)c1ccc(O)c2nc(O)ccc12 | inactive: 1
C[C@@H]1CN([C@H](C)CO)C(=O)Cc2cc(NC(=O)Cc3cn(C)c4ccccc34)ccc2O[C@@H]1CN(C)Cc1ccc(-c2ccccc2)cc1 | inactive: 1
C[C@@H]1CN([C@@H](C)CO)C(=O)c2cc(NC(=O)C3CCCCC3)ccc2O[C@@H](C)CCCCO[C@@H]1CN(C)Cc1ccc(C(F)(F)F)cc1 | inactive: 1.03
C[C@@H]1CCCCO[C@H](CN(C)C(=O)Nc2cccc3ccccc23)[C@@H](C)CN([C@@H](C)CO)C(=O)c2cc(NC(=O)CCC(F)(F)F)ccc2O1 | inactive: 1.02
COc1ccc(NC(=O)Nc2ccc3c(c2)C(=O)N([C@H](C)CO)C[C@@H](C)[C@H](CN(C)Cc2ccc(C(=O)O)cc2)OCCCC[C@@H](C)O3)cc1 | inactive: 1.01
C[C@@H]1CCCCO[C@H](CN(C)Cc2ccc(C(=O)O)cc2)[C@H](C)CN([C@@H](C)CO)C(=O)c2cc(NC(=O)Nc3ccc(F)cc3)ccc2O1 | inactive: 0.975
C[C@@H]1CCCCO[C@@H](CN(C)Cc2ccc(C(=O)Nc3ccccc3N)cc2)[C@@H](C)CN([C@H](C)CO)C(=O)c2cc(NS(=O)(=O)c3ccc(Cl)cc3)ccc2O1 | inactive: 0.996
C[C@@H]1CN([C@@H](C)CO)C(=O)c2cc(C#CCN(C)C)cnc2O[C@H]1CN(C)S(=O)(=O)c1cn(C)cn1 | inactive: 0.994
Cc1noc(C)c1S(=O)(=O)N(C)C[C@H]1Oc2ccc(NS(=O)(=O)c3cccs3)cc2C(=O)N([C@@H](C)CO)C[C@H]1C | inactive: 1.01
C[C@H](CO)N1C[C@H](C)[C@@H](CN(C)C(=O)c2ccc3c(c2)OCO3)Oc2cc(-c3cncnc3)ccc2S1(=O)=O | inactive: 0.993
NCCS(=O)(=O)N1CCN(c2ccc(F)cc2)CC1 | inactive: 0.949
C[C@H](CO)N1C[C@H](C)[C@@H](CN(C)C(=O)NC2CCCCC2)Oc2ccc(NC(=O)c3ccncc3)cc2CC1=O | inactive: 0.964

Structure (SMILES) | relative growth
NC(=O)c1cc2ccccc2oc1=O | inactive: 0.971
O=C(O)C1(Cn2ccnc2)CC1 | inactive: 1.01
C[C@H]1CCCCO[C@H](CN(C)Cc2ccccc2)[C@@H](C)CN([C@@H](C)CO)C(=O)c2cc(NC(=O)CCC(F)(F)F)ccc2O1 | inactive: 0.981
C[C@H](C(=O)N(C)C[C@@H]1OCc2ccccc2-c2c(n(C)c3ccccc23)C(=O)N([C@H](C)CO)C[C@@H]1C)c1ccccc1 | inactive: 0.998
Cc1ccc(S(=O)(=O)N(C)C[C@@H]2OCCCC[C@@H](C)Oc3ccc(NC(=O)Nc4cccc5ccccc45)cc3C(=O)N([C@@H](C)CO)C[C@@H]2C)cc1 | inactive: 1.04
C[C@@H]1CCCCO[C@H](CN(C)C(=O)Nc2cccc3ccccc23)[C@H](C)CN([C@@H](C)CO)C(=O)c2cc(NS(=O)(=O)c3ccc(Cl)cc3)ccc2O1 | inactive: 1.01
CSc1ccc2cc(CN(C[C@H]3CCCO3)C(=O)c3ccco3)c(N(C)Cc3csc(C)n3)nc2c1 | inactive: 1.03
C[C@@H]1CCCCO[C@H](CN(C)Cc2ccc(Cl)c(Cl)c2)[C@H](C)CN([C@@H](C)CO)C(=O)c2cc(NC(=O)Nc3ccccc3)ccc2O1 | inactive: 1
COc1ccc(C(=O)Nc2ccc(CN3C(=O)[C@@]4(O[C@@H](CC(=O)N(CCO)Cc5ccccc5)[C@H]([Si](C)(C)c5ccc(OC)cc5)[C@H]4C)c4ccccc43)cc2)cc1 | inactive: 1.03
C[C@H](CO)N1C[C@H](C)[C@@H](CN(C)Cc2ccc(Cl)c(Cl)c2)Oc2ccc(NS(=O)(=O)c3ccccc3)cc2CC1=O | inactive: 1.02
COc1ccc(CN(C)C[C@H]2OCCCC[C@@H](C)Oc3ccc(NS(=O)(=O)c4ccc(Cl)cc4)cc3C(=O)N([C@@H](C)CO)C[C@@H]2C)cc1 | inactive: 1
Cc1noc(C)c1NC(=O)N(C)C[C@@H]1Oc2ccc(NS(C)(=O)=O)cc2CC(=O)N([C@H](C)CO)C[C@H]1C | inactive: 0.997
C[C@@H]1CCCCO[C@@H](CN(C)Cc2ccccc2)[C@H](C)CN([C@H](C)CO)C(=O)c2cc(NC(=O)Nc3ccc(F)cc3)ccc2O1 | inactive: 0.992
C[C@@H]1CN([C@@H](C)CO)C(=O)c2cc(NC(=O)NC3CCCCC3)ccc2O[C@@H](C)CCCCO[C@H]1CN(C)Cc1ccc(C(F)(F)F)cc1 | inactive: 1.02
COc1ccc(NC(=O)Nc2ccc3c(c2)C(=O)N([C@@H](C)CO)C[C@@H](C)[C@@H](CN(C)C(=O)Nc2ccc(F)cc2)OCCCC[C@@H](C)O3)cc1 | inactive: 1.01
COc1ccc(S(=O)(=O)N(C)C[C@@H]2Oc3ccc(NC(=O)Nc4c(C)noc4C)cc3C(=O)N([C@@H](C)CO)C[C@@H]2C)cc1 | inactive: 1.01
C[C@@H]1CN([C@@H](C)CO)C(=O)c2cc(C#CCN(C)C)cnc2O[C@@H]1CN(C)Cc1ccc(C(=O)O)cc1 | inactive: 0.986
CC(C)NC(=O)Nc1ccc2c(c1)C(=O)N([C@@H](C)CO)C[C@@H](C)[C@H](CN(C)Cc1ccc(Cl)c(Cl)c1)OCCCC[C@H](C)O2 | inactive: 0.994
CCOC(=O)c1c(CN2CCN(c3ccc(C)cc3)CC2)n(-c2ccccc2)c2cc(Br)c(OC)cc12 | inactive: 1.02
